According to paper PMC9911399, “Two distinct binding modes provide the RNA-binding protein RbFox with extraordinary sequence specificity”:
Where a chain is given by its changes, count along the chain named. The list shows a part of the results.

T1: RBFOX1 RRM RbFoxmut (Fox-RRM*) (Homo sapiens, UniProt Q9NWB1 109-208, R118D;E147R;N151S;E152T)
T1 sequence: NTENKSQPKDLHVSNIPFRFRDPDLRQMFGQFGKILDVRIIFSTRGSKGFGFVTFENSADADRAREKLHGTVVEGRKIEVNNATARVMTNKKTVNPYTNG

B1: GUAUGUU (DNA:RNA)
RNA: GGGAGACCGGAAUUCAGAUUGUCCGUAUGUUUUAAAUCCCGUCGUAGCCACCA
DNA 1: CAATCTGAATTCCGGTCTCCC
DNA 2: TGGTGGCTACGACGGGATT
B2: CCGGGUG (DNA:RNA)
RNA: B1 RNA with G25C, U26C, A27G, U28G, U31G
DNA 1: CAATCTGAATTCCGGTCTCCC
DNA 2: TGGTGGCTACGACGGGATT
B3: GUACUGA (DNA:RNA)
RNA: B1 RNA with U28C, G29U, U30G, U31A
DNA 1: CAATCTGAATTCCGGTCTCCC
DNA 2: TGGTGGCTACGACGGGATT
B4: GCAUUCG (DNA:RNA)
RNA: B1 RNA with U26C, G29U, U30C, U31G
DNA 1: CAATCTGAATTCCGGTCTCCC
DNA 2: TGGTGGCTACGACGGGATT
B5: GUGACUG (DNA:RNA)
RNA: B1 RNA with A27G, U28A, G29C, U31G
DNA 1: CAATCTGAATTCCGGTCTCCC
DNA 2: TGGTGGCTACGACGGGATT
B6: CAACUCA (DNA:RNA)
RNA: B1 RNA with G25C, U26A, U28C, G29U, U30C, U31A
DNA 1: CAATCTGAATTCCGGTCTCCC
DNA 2: TGGTGGCTACGACGGGATT
B7: AAUAAAA (DNA:RNA)
RNA: GGGAGACCGGAAUUCAGAUUGUCCAAUAAAAUUAAAUCCCGUCGUAGCCACCA
DNA 1: CAATCTGAATTCCGGTCTCCC
DNA 2: TGGTGGCTACGACGGGATT
B8: UCUUCAG (DNA:RNA)
RNA: B7 RNA with A25U, A26C, A28U, A29C, A31G
DNA 1: CAATCTGAATTCCGGTCTCCC
DNA 2: TGGTGGCTACGACGGGATT
B9: GGUCGGU (DNA:RNA)
RNA: B1 RNA with U26G, A27U, U28C, U30G
DNA 1: CAATCTGAATTCCGGTCTCCC
DNA 2: TGGTGGCTACGACGGGATT
B10: AAAGAAG (DNA:RNA)
RNA: B7 RNA with U27A, A28G, A31G
DNA 1: CAATCTGAATTCCGGTCTCCC
DNA 2: TGGTGGCTACGACGGGATT
B11: UUUCAGC (DNA:RNA)
RNA: B7 RNA with A25U, A26U, A28C, A30G, A31C
DNA 1: CAATCTGAATTCCGGTCTCCC
DNA 2: TGGTGGCTACGACGGGATT
B12: AGCAGGU (DNA:RNA)
RNA: B7 RNA with A26G, U27C, A29G, A30G, A31U
DNA 1: CAATCTGAATTCCGGTCTCCC
DNA 2: TGGTGGCTACGACGGGATT
B13: CAUUCGA (DNA:RNA)
RNA: B7 RNA with A25C, A28U, A29C, A30G
DNA 1: CAATCTGAATTCCGGTCTCCC
DNA 2: TGGTGGCTACGACGGGATT
B14: AAAAGAC (DNA:RNA)
RNA: B7 RNA with U27A, A29G, A31C
DNA 1: CAATCTGAATTCCGGTCTCCC
DNA 2: TGGTGGCTACGACGGGATT
B15: CUGGCGA (DNA:RNA)
RNA: B7 RNA with A25C, A26U, U27G, A28G, A29C, A30G
DNA 1: CAATCTGAATTCCGGTCTCCC
DNA 2: TGGTGGCTACGACGGGATT
B16: CAGCACU (DNA:RNA)
RNA: B7 RNA with A25C, U27G, A28C, A30C, A31U
DNA 1: CAATCTGAATTCCGGTCTCCC
DNA 2: TGGTGGCTACGACGGGATT
B17: GUCCACA (DNA:RNA)
RNA: B7 RNA with A25G, A26U, U27C, A28C, A30C
DNA 1: CAATCTGAATTCCGGTCTCCC
DNA 2: TGGTGGCTACGACGGGATT
B18: GUUUAAA (DNA:RNA)
RNA: B7 RNA with A25G, A26U, A28U
DNA 1: CAATCTGAATTCCGGTCTCCC
DNA 2: TGGTGGCTACGACGGGATT
B19: UCAAGCG (DNA:RNA)
RNA: B1 RNA with G25U, U26C, U28A, U30C, U31G
DNA 1: CAATCTGAATTCCGGTCTCCC
DNA 2: TGGTGGCTACGACGGGATT
B20: GUUUUAG (DNA:RNA)
RNA: B1 RNA with A27U, G29U, U30A, U31G
DNA 1: CAATCTGAATTCCGGTCTCCC
DNA 2: TGGTGGCTACGACGGGATT
B21: GGACAUU (DNA:RNA)
RNA: B1 RNA with U26G, U28C, G29A
DNA 1: CAATCTGAATTCCGGTCTCCC
DNA 2: TGGTGGCTACGACGGGATT
B22: ACACACC (DNA:RNA)
RNA: B7 RNA with A26C, U27A, A28C, A30C, A31C
DNA 1: CAATCTGAATTCCGGTCTCCC
DNA 2: TGGTGGCTACGACGGGATT
B23: AGUAGGG (DNA:RNA)
RNA: B7 RNA with A26G, A29G, A30G, A31G
DNA 1: CAATCTGAATTCCGGTCTCCC
DNA 2: TGGTGGCTACGACGGGATT
B24: GAAUCCU (DNA:RNA)
RNA: B1 RNA with U26A, G29C, U30C
DNA 1: CAATCTGAATTCCGGTCTCCC
DNA 2: TGGTGGCTACGACGGGATT
B25: UACAUUA (DNA:RNA)
RNA: B7 RNA with A25U, U27C, A29U, A30U
DNA 1: CAATCTGAATTCCGGTCTCCC
DNA 2: TGGTGGCTACGACGGGATT
B26: GCCUUGG (DNA:RNA)
RNA: B1 RNA with U26C, A27C, G29U, U30G, U31G
DNA 1: CAATCTGAATTCCGGTCTCCC
DNA 2: TGGTGGCTACGACGGGATT
B27: CAAUGCA (DNA:RNA)
RNA: B1 RNA with G25C, U26A, U30C, U31A
DNA 1: CAATCTGAATTCCGGTCTCCC
DNA 2: TGGTGGCTACGACGGGATT
B28: AUGGCUG (DNA:RNA)
RNA: B1 RNA with G25A, A27G, U28G, G29C, U31G
DNA 1: CAATCTGAATTCCGGTCTCCC
DNA 2: TGGTGGCTACGACGGGATT
B29: UUGGCCA (DNA:RNA)
RNA: B7 RNA with A25U, A26U, U27G, A28G, A29C, A30C
DNA 1: CAATCTGAATTCCGGTCTCCC
DNA 2: TGGTGGCTACGACGGGATT
B30: UACAUCU (DNA:RNA)
RNA: B7 RNA with A25U, U27C, A29U, A30C, A31U
DNA 1: CAATCTGAATTCCGGTCTCCC
DNA 2: TGGTGGCTACGACGGGATT
B31: GGCGGGU (DNA:RNA)
RNA: B1 RNA with U26G, A27C, U28G, U30G
DNA 1: CAATCTGAATTCCGGTCTCCC
DNA 2: TGGTGGCTACGACGGGATT

biological target: T1, RBFOX1 RRM RbFoxmut (Fox-RRM*); experiment: EMSA; HiTS-Eq, 1 nM pool, 10 min; buffer printed only for the single-RNA assays: 10 mM Tris pH 7.5, 150 mM NaCl, 3.4 mM EDTA, 0.001% NP-40, 30 C; details: tags: His6 N-terminal (pET28a); label: 5' 32P
In short: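 These values rest on relative association constants, computed from read-count changes of each RNA species versus the control reaction and normalised to the cognate motif. Reads came from free RNA recovered by 8% native PAGE after purified RbFox RRM (wild type or mutant) at increasing concentrations was equilibrated for 10 min in 50 µL with 1 nM of a 5′-radiolabelled pool with 7 randomized nucleotides and DNA-annealed flanks.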

Binder	binding signal
B1	0.497 KA relative to UGCAUGU
B2	0.163 KA relative to UGCAUGU
B3	0.108 KA relative to UGCAUGU
B4	0.119 KA relative to UGCAUGU
B5	0.387 KA relative to UGCAUGU
B6	0.138 KA relative to UGCAUGU
B7	0.067 KA relative to UGCAUGU
B8	0.113 KA relative to UGCAUGU
B9	0.101 KA relative to UGCAUGU
B10	0.0954 KA relative to UGCAUGU
B11	0.0933 KA relative to UGCAUGU
B12	0.117 KA relative to UGCAUGU
B13	0.0833 KA relative to UGCAUGU
B14	0.0642 KA relative to UGCAUGU
B15	0.083 KA relative to UGCAUGU
B16	0.0877 KA relative to UGCAUGU

Binder	binding signal
B17	0.113 KA relative to UGCAUGU
B18	0.121 KA relative to UGCAUGU
B19	0.123 KA relative to UGCAUGU
B20	0.121 KA relative to UGCAUGU
B21	0.0676 KA relative to UGCAUGU
B22	0.0425 KA relative to UGCAUGU
B23	0.0759 KA relative to UGCAUGU
B24	0.171 KA relative to UGCAUGU
B25	0.0825 KA relative to UGCAUGU
B26	0.501 KA relative to UGCAUGU
B27	0.172 KA relative to UGCAUGU
B28	0.333 KA relative to UGCAUGU
B29	0.116 KA relative to UGCAUGU
B30	0.0705 KA relative to UGCAUGU
B31	0.0893 KA relative to UGCAUGU
